Assay results as given in the supplement of paper PMC12217912.
Some of the results follow. The full chains were built here from the parent and the listed change. Values near 0.05 are background.

B1: TEV protease; numbered along this chain (parent)
chain: MGESLFKGPRDYNPISSSICHLTNESDGHTTSLYGIGFGPFIITNKHLFRRNNGTLVVQSLHGVFKVKDTTTLQQHLVDGRDMIIIRMPKDFPPFPQKLKFREPQREERICLVTTNFQTKSMSSMVSDTSCTFPSGDGIFWKHWIQTKDGQCGSPLVSTRDGFIVGIHSASNFTNTNNYFTSVPKNFMELLTNQEAQQWVSGWRLNADSVLWGGHKVFMVKPEEPFQPVKEATQL

Variants of: B1
Experiment: raw area under fraction-flipped curve 0-4 h after induction (AUC4h, not background-subtracted), DNA-recorder readout of cleavage of the substrate (dimensionless); higher = more cleavage of the substrate by the protease variant
Details: temperature: 34 °C; time window: 0-4 h after rhamnose induction
Procedure: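 In vivo DNA recorder in E. coli TOP10(DE3) ΔrhaA at 34 °C. Each TEVp single-site mutant (parent TEVp 0) is paired with a single-site variant of the 7-mer TEVs (canonical ENLYFQ|S). The substrate sits between flexible linkers in a Bxb1-sfGFP-TEVs-SsrA fusion, so cleavage stabilises Bxb1 and speeds flipping of a recombination array, read by NGS. The value is the raw area under the fraction-flipped curve over 0-4 h after rhamnose induction (AUC4h), with ≥20 reads per time point. It is not background-subtracted; inactive controls average about 0.047.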
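Also: Bxb1 expression induced with 0.2% (w/v) L-rhamnose at OD600 near 0.5, cultures sampled hourly, flipped fraction per protease–substrate barcode pair counted by paired-end Illumina sequencing.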

| Variant | area with substrate ENAYFQS | area with substrate ENDYFQS | area with substrate ENFYFQS | area with substrate ENGYFQS | area with substrate ENHYFQS | area with substrate ENIYFQS | area with substrate ENMYFQS | area with substrate ENQYFQS | area with substrate ENRYFQS | area with substrate ENSYFQS | area with substrate ENTYFQS | area with substrate ENVYFQS | area with substrate ENWYFQS | area with substrate ENCYFQS | area with substrate ENEYFQS | area with substrate ENKYFQS | area with substrate ENNYFQS | area with substrate ENPYFQS | area with substrate ENYYFQS |
| --- | --- | --- | --- | --- | --- | --- | --- | --- | --- | --- | --- | --- | --- | --- | --- | --- | --- | --- | --- |
| I36C | 0.0588 | 0.0671 | 0.0664 | 0.0603 | 0.0651 | 0.0837 | 0.0734 | 0.0579 | 0.0695 | 0.0567 | 0.0611 | 0.0397 | 0.0427 | – | – | – | – | – | – |
| I36N | 0.0444 | 0.0569 | – | 0.0511 | 0.0446 | 0.0759 | – | 0.0492 | 0.0552 | 0.0462 | 0.0484 | 0.0606 | – | 0.0577 | 0.0592 | 0.0401 | 0.0462 | 0.0412 | – |
| G37L | 0.0508 | – | – | – | 0.0528 | – | 0.0758 | 0.0427 | 0.0519 | 0.0624 | 0.073 | 0.0632 | – | 0.1 | – | – | 0.0602 | 0.051 | 0.0329 |
| G37R | 0.0507 | 0.0566 | 0.0555 | – | 0.0419 | – | – | 0.0475 | 0.0492 | 0.0597 | 0.0606 | 0.0488 | 0.0534 | 0.0506 | – | – | 0.0693 | 0.0455 | 0.0513 |
| G39D | 0.0441 | 0.0345 | 0.0325 | 0.0266 | 0.0354 | – | – | 0.0501 | – | 0.0482 | 0.0445 | 0.0242 | – | 0.0416 | 0.0398 | 0.0456 | 0.0359 | – | 0.0192 |
| G39K | 0.0357 | 0.0265 | 0.0465 | 0.014 | 0.0541 | 0.0447 | 0.0485 | 0.0535 | 0.0323 | 0.0407 | 0.0425 | – | – | 0.0317 | 0.0552 | 0.0582 | – | – | – |
| G39S | 0.0501 | 0.0421 | 0.0535 | 0.0512 | 0.0425 | 0.0441 | 0.0353 | 0.0417 | 0.0462 | 0.0451 | – | 0.0436 | 0.014 | 0.0249 | 0.0424 | – | 0.0526 | 0.0407 | – |
| G39V | 0.0315 | 0.0439 | 0.0468 | 0.0423 | 0.0468 | – | 0.0478 | 0.0364 | 0.0448 | 0.0414 | 0.0411 | 0.0365 | 0.0373 | 0.0361 | 0.0434 | 0.0403 | 0.0461 | 0.0386 | 0.0487 |
| P40A | 0.042 | 0.0563 | – | 0.0727 | 0.0566 | 0.131 | – | – | 0.071 | 0.0632 | 0.0619 | 0.0674 | 0.0586 | 0.0634 | 0.0568 | 0.0384 | 0.0597 | – | – |
| I42G | 0.0497 | 0.0514 | 0.0346 | 0.105 | 0.0391 | 0.0327 | 0.044 | – | – | 0.0438 | 0.0826 | 0.0493 | – | 0.0487 | 0.0534 | – | 0.0493 | 0.0518 | 0.0475 |
| I42W | 0.0512 | 0.0536 | 0.0535 | 0.0544 | 0.042 | 0.0696 | – | 0.0414 | 0.0426 | 0.0535 | 0.0431 | 0.0685 | – | 0.0587 | 0.0608 | 0.0466 | 0.054 | 0.0377 | 0.0477 |
| I43V | 0.0435 | 0.0554 | 0.0645 | 0.0676 | – | 0.112 | 0.0917 | 0.0801 | 0.0646 | 0.0496 | 0.0691 | – | 0 | – | 0.0723 | – | 0.0484 | – | – |
| T44L | 0.0468 | 0.0664 | 0.05 | 0.0496 | 0.0577 | – | – | 0.0581 | – | 0.0572 | 0.038 | 0.0539 | – | 0.0596 | 0.0628 | 0.059 | 0.0578 | – | 0.0475 |
| K46E | 0.0488 | 0.059 | 0.0594 | 0.0566 | 0.0791 | 0.0619 | 0.0597 | 0.0567 | 0.0573 | 0.0579 | 0.0657 | 0.0674 | – | 0.0616 | 0.0651 | 0.0682 | 0.0547 | 0.0796 | – |
| K46F | 0.0391 | 0.0593 | 0.066 | – | – | 0.0801 | 0.0126 | – | 0.0543 | 0.0665 | 0.0579 | – | – | 0.0607 | – | – | – | 0.0564 | – |
| K46R | 0.0353 | 0.0725 | 0.0603 | 0.0667 | 0.0682 | 0.0871 | 0.0554 | 0.0591 | 0.0597 | 0.0688 | – | – | 0.0831 | 0.0794 | – | 0.069 | 0.0537 | 0.0701 | – |
| H47R | 0.0528 | 0.0593 | 0.0459 | 0.0396 | 0.0534 | 0.0689 | 0.0562 | 0.0663 | 0.0602 | 0.0819 | 0.0596 | 0.0602 | – | 0.0542 | 0.0676 | 0.0734 | 0.0505 | 0.0628 | – |
| L48H | 0.0458 | 0.057 | 0.051 | – | – | – | – | 0.0614 | – | 0.061 | 0.0532 | 0.0631 | – | 0.0592 | – | – | 0.0591 | 0.0557 | – |
| F49H | 0.0481 | 0.0731 | 0.0616 | – | 0.0602 | 0.0591 | 0.0568 | 0.051 | – | 0.0585 | 0.0665 | – | – | – | 0.0661 | 0.0668 | 0.051 | – | 0.0488 |
| R50L | 0.0718 | 0.0644 | 0.049 | 0.083 | 0.0614 | 0.128 | 0.065 | 0.0563 | – | 0.0554 | 0.0754 | 0.0603 | 0.0464 | 0.0738 | 0.0666 | 0.0531 | 0.0555 | – | 0.0453 |
| R51C | 0.0502 | 0.0672 | 0.0768 | 0.0678 | 0.0424 | – | 0.0798 | 0.0359 | – | 0.0575 | – | 0.0905 | 0.0649 | 0.059 | 0.0462 | 0.0458 | 0.0684 | 0.0566 | – |
| R51M | 0.0695 | 0.0607 | – | 0.0592 | 0.0608 | 0.141 | – | 0.0513 | 0.0614 | 0.059 | 0.066 | 0.0657 | 0.0598 | 0.0686 | – | 0.0533 | 0.0589 | 0.077 | 0.0384 |
| N52F | 0.0584 | 0.0705 | 0.0302 | – | 0.0774 | 0.0436 | 0.0586 | 0.0694 | – | 0.0643 | 0.0586 | 0.0588 | 0.0128 | 0.0948 | 0.0565 | 0.0624 | – | 0.0559 | 0.0556 |
| N52S | 0.0561 | 0.0568 | – | – | 0.0535 | 0.059 | 0.0649 | 0.0583 | – | 0.0612 | 0.0563 | 0.0609 | – | 0.0482 | 0.0587 | – | 0.0541 | 0.0553 | 0.0483 |
